The record followed here is PubChem BioAssay AID1346428 (National Center for Advancing Translational Sciences (NCATS), 2018).

Several values for one entry are separate records, joined by “and”; a condition that tells them apart may be missing. Identical values can stand only once. About 1,200 (2.5%) of roughly 48,000 compounds were called active. Not shown: some 2% with an inconclusive outcome.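 Rule for the calls: active = activation of at least 60% and not above a set upper limit (about 1 call in 100 departs from these limits); inconclusive = activation of 40% to 60%, or above that upper limit; inactive = activation under 40%.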 The list shows a part of the results.

Chain of UniProt O75388 (O75388 whole entry, looked up): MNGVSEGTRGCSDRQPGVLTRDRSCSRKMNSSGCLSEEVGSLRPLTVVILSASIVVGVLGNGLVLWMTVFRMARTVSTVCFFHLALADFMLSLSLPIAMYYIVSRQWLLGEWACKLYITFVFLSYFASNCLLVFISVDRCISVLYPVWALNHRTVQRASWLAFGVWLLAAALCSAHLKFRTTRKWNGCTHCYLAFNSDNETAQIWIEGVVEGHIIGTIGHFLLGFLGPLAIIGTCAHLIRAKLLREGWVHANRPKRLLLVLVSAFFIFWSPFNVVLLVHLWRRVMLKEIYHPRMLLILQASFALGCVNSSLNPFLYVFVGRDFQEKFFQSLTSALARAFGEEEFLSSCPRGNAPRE

For this test, the target named is Probable G-protein coupled receptor 32 (Homo sapiens) (UniProt O75388). Put plainly: qHTS for Agonists of Human Resolvin D1 Receptor DRV1. Note: 0% is about no effect. The conditions noted are these: CHO-K1 GPR32 beta-arrestin PathHunter luminescence, 90 min; at 76.9 µM; stronger effect = higher value; zero percent set by DMSO-only wells. The method in brief:
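Step 1: seed CHO-K1 GPR32 beta-arrestin cells, 2,500/well, overnight at 37 °C. Step 2: add compounds, 90 min at 37 °C. Step 3: detection reagent, 1 h ambient, then luminescence.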
(In general: qHTS replaces the single test concentration by a dilution series.)
As to `CCc1ccc(S(=O)(=O)NCCc2csc3nc(-c4ccccc4)nn23)s1`, the activation is inactive: 35.6%.
Take `CC(C)(C)c1ccc(-c2nc3cc(NC(=O)c4cccc(Br)c4)ccc3o2)cc1`: the activation was inactive: 2.01%.
The value for `O=S(=O)(O)c1ccc(O)cc1` was inactive: 1.27%; that for `COc1cccc(C(=O)NCc2nc(-c3ccccc3)no2)c1OC` was inactive: 32.2%; that for `Cn1c(=O)c2c(ncn2CC(=O)Nc2cccc(C(F)(F)F)c2)n(C)c1=O` was inactive: 21.5%.
The value for `Cc1cccc(NC(=O)CCc2c(C)nc3nc(CNC(=O)c4cccc(F)c4)nn3c2C)c1` was inactive: 6.37%; that for `COc1ccc(Cn2c(SCc3ccc(C(=O)NC4CCCC4)cc3)nc3cccnc32)cc1` was inactive: -6.28%; that for `Cc1oc(-c2ccccc2)nc1CCC(=O)c1ccc(CC2SC(=O)NC2=O)cc1` (centres undefined) was active: 74.4%.
Consider `O=C(Cn1c(=O)n(Cc2ccc3c(c2)OCO3)c(=O)c2oc3ccccc3c21)Nc1ccc(F)cc1`, for which the activation was inactive: -24.7%.
As to `COc1ccc(-c2noc(CSc3nnc(-c4ccncc4)n3-c3ccc(C)cc3)n2)cc1OC`, the activation was inactive: 35.6%.
As to `CCOC(=O)c1c(C)oc2nc(C)nc(NCc3ccc(Cl)cc3)c12`, the activation was inactive: -3.98%.
For the compound `CCn1cc(C(=O)N2CCN(c3ccccc3F)CC2)c(=O)c2cc(S(=O)(=O)N(C)C3CCCCC3)ccc21`, the activation was inactive: 6.05%.
The value for `Cc1cccc(NC(=O)CSc2nc(-c3ccco3)nc3cc(=O)[nH]n23)c1` was inactive: -9.52%.
The value for `Cc1cccc(NC(=O)c2nc(S(C)(=O)=O)ncc2Cl)c1` was inactive: -9.5%.
The value for `COc1cc(NC(=O)c2ccccc2)ccc1NC(=O)c1cc2ccccc2o1` was inactive: 30.4%; that for `COc1ccc(-c2cc3ccc(O)c(CN4CCOCC4)c3oc2=O)cc1` was inactive: 25.6%; that for `CC(=O)N1CCc2cc(Br)cc(S(=O)(=O)N3CCC(C(=O)N(C)c4cc(C)ccc4C)CC3)c21` was inactive: -11.8%.
For `COC(=O)c1c(SC)nc2ccccc2c1OCc1ccccc1C`, the activation was inactive: -18.3%.
Take `COc1ccc(-c2ccc3c(N)c(C(=O)NCc4ccc(Cl)cc4)sc3n2)cc1`: the activation was inactive: 2.93%.
`O=C(CCn1c(=O)c2ccccc2n(Cc2ccc(F)cc2Cl)c1=O)NCc1ccc2c(c1)OCO2`: the activation is inactive: 2.02%.
For the compound `CCc1ccc(NC(=O)C2CCN(S(=O)(=O)c3ccc4[nH]c5c(c4c3)CCCCC5)CC2)cc1`, the activation was inactive: -2.32%.
Regarding `CCOC(=O)C1CCN(C(=O)C2CCN(C3=NS(=O)(=O)C(c4ccc(C)cc4)=C3CC)CC2)CC1`, the activation was inactive: -4.91%.
For `Cc1cccc(C)c1NC(=O)Cn1c(=O)n(CC2CCC(C(=O)NCCc3ccccc3)CC2)c(=O)c2ccccc21` (centres undefined), the activation was inactive: -1.2%.
In the case of `CC(=O)c1ccc(S(=O)(=O)Nc2cccc(-c3ccc(N4CCCCC4)nn3)c2)cc1` it was inactive: 1.91%; in that of `Cn1cc(S(=O)(=O)N2CCCCCC2)cc1C(=O)N1CCN(c2cccc(Cl)c2)CC1`, inactive: -8.96%.
In the case of `CCOC(=O)CSc1nc2c(sc3ccccc32)c(=O)n1CCc1ccccc1` it was inactive: 14.1%; in that of `Cc1ccc(CNC(=O)C2CCN(c3nc4ccccc4n(C)c3=O)CC2)cc1`, inactive: 5.55%; in that of `O=[N+]([O-])c1cc(-c2nc(-c3ccccc3)no2)ccc1N1CCN(c2ccccc2)CC1`, inactive: -3.17%.
As for `Cc1ccc(Cl)cc1N1CCN(C(=O)CCC(=O)Nc2ccc3nc(N4CCC(C)CC4)cc(C)c3c2)CC1`, the activation was inactive: -5.07%.
Turning to `Cc1ccc(C(=O)O)cc1Nc1nc2ccccc2n2nnnc12`, the activation was inactive: 10.4%.
In the case of `CCCOc1ccc(CNC(=O)C(CC)n2nc(C)c3sc4ccccc4c3c2=O)cc1` (centres undefined) it was inactive: -18.3%.
In the case of `CCOc1ccc2nc(C)cc(Nc3ccccc3OCC)c2c1` it was active: 90%; in that of `Cc1ccc(NC(=O)Cn2nnc(-c3nc(-c4ccncc4)no3)c2N)cc1`, inactive: 9.68%; in that of `O=C(O)c1cc(=O)cc(C(=O)O)[nH]1`, inactive: 5.88%.
The value for `O=S(=O)(c1ccccc1)c1nc(-c2cccs2)oc1SCc1ccccc1F` was inactive: -24.5%.
As to `CCC(C)(C)C1CCc2c(sc(NC(=O)C3c4ccccc4Oc4ccccc43)c2C(N)=O)C1` (centres undefined), the activation was inactive: 1.96%.
For the compound `Cc1ccccc1NC(=O)CCn1cnc2onc(-c3ccc(F)cc3)c2c1=O`, the activation was inactive: 0.571%.
On to `CCCCC(CC)CNC(=O)C1CCN(S(=O)(=O)c2cccc3nsnc23)CC1` (centres undefined), for which the activation is inactive: 0.934%.
With `Cc1ccc(C)c(N2CCN(CCCNC(=O)Cn3ncc4c5ccccc5n(C)c4c3=O)CC2)c1`, the activation was inactive: -9.82%.
The value for `CCOc1ccc(NC(=O)CCn2cnc3onc(-c4ccc(F)cc4)c3c2=O)cc1` was inactive: 44.3%; that for `N#Cc1nc(-c2ccc(COc3ccc(Cl)cc3)o2)oc1N1CCN(c2ccccc2)CC1` was inactive: -0.197%; that for `COc1ccccc1N1CCN(C(=O)c2cc3c(=O)n(Cc4ccco4)ccc3nc2C)CC1` was inactive: -3.73%.
In the case of `Cc1ccc(NS(=O)(=O)c2c(C(=O)N3CCC(C)CC3)c(C)n(C)c2C)cc1Cl` it was inactive: -12.6%; in that of `O=C(O)[C@@H](O)[C@H](O)[C@H](O)[C@@H](O)C(=O)O`, inactive: -10%.
The value for `CCOC(=O)c1c(S(=O)(=O)N2CCCC(C(=O)N3CCN(c4cccc(C)c4C)CC3)C2)c(C)n(C)c1C` (centres undefined) was inactive: 9.77%.
Consider `Cc1ccc(CN2CCSc3ccc(C(=O)N4CCN(c5cc(C)ccc5C)CC4)cc32)cc1`, for which the activation is inactive: -10.2%.
The value for `O=C(CSc1nc2c(oc3ccccc32)c(=O)n1-c1ccccc1F)Nc1ccccc1` was inactive: 14%.
The value for `OC[C@H]1O[C@H](O[C@]2(CCl)O[C@H](CCl)[C@@H](O)[C@@H]2O)[C@H](O)[C@@H](O)[C@H]1Cl` was inactive: 6.43%; that for `Cc1ccc(Nc2c3c(nc4nncn24)CCC3)cc1C` was inactive: -14.4%; that for `Cn1c(=O)cc(SCC(=O)N2CCN(c3ccc(F)cc3)CC2)c2ccc(Cl)cc21` was inactive: 8.85%.
For the compound `CC(C)CN1CCc2nc(N3CCN(C)CC3)ncc2C1`, the activation is inactive: -4.27%.
The value for `CCOc1cc(S(=O)(=O)n2ccnc2C(C)C)ccc1Cl` was inactive: -7.64%; that for `O=C(CN1C(=O)COc2ccc(S(=O)(=O)N3CCOCC3)cc21)NCc1ccc(F)cc1` was inactive: -15.6%.
With `CN(Cc1ccccc1)C(=O)C1CCN(S(=O)(=O)Cc2ccccc2)CC1`, the activation was inactive: 44.4%.
Take `COc1cc(OC)c(N(C)C(=O)Cn2ncc3c([nH]c4ccccc43)c2=O)cc1Cl`: the activation was inactive: 27.8%.
On to `O=c1c2cc3c(cc2nc2sc(Nc4ccc(F)c(Cl)c4)nn12)OCO3`, for which the activation was inactive: -3.27%.
Turning to `Cc1nc(C)c(-c2ccc(SCC(=O)Nc3ccc(F)c(F)c3)nn2)s1`, the activation was inactive: 13.8%.
In the case of `Cc1ccc(NC(=O)c2cc(S(=O)(=O)N3CCCC(C)C3)cn2C)c(Br)c1` (centres undefined) it was inactive: -8.78%; in that of `COc1cc(/C=C(\C#N)c2nc3ccccc3n2C)cc(OC)c1OC`, inactive: -1.02%.
In the case of `Cn1c(=O)c2c(-c3cccc(Br)c3)n(CCO)cc2n(C)c1=O` it was inactive: 3.75%; in that of `CCOc1ccc(CNC(=O)c2cc3ccccn3n2)cc1OC`, inactive: 1.05%; in that of `CCN1CCN(c2oc(/C=C/c3ccccc3OC)nc2C#N)CC1`, inactive: -18.3%.
For the compound `COc1cccc(NS(=O)(=O)c2ccc3[nH]cc(C(=O)N4CCCCCC4)c(=O)c3c2)c1`, the activation was inactive: -6.52%.
The value for `Cc1ccc(-n2c(=O)c3ccc(C(=O)NCc4ccccc4Cl)cc3n(Cc3ccccc3F)c2=O)cc1` was inactive: 14.3%.
In the case of `CCOC(=O)c1c(-c2ccc(C)cc2)csc1NC(=O)c1nc(SCC)ncc1Cl` it was inactive: 19.7%; in that of `CC1CCN(CCCNC(=O)c2cc(Sc3ccc(F)cc3)nc3ccccc23)CC1`, inactive: -13.6%; in that of `CCc1ccc(CN(Cc2cn[nH]c2-c2ccc(OC)cc2)C(=O)Nc2ccc(C)c(F)c2)cc1`, inactive: -21.4%.
In the case of `Nc1cccc(-c2cn3ccsc3n2)c1` it was inactive: 6.7%.
Regarding `CSc1nnc(NC(=O)Cc2coc3cc(C)ccc23)s1`, the activation was inactive: 9.96%.
The value for `CCOC(=O)c1c(-c2ccccc2)oc2ccc(NS(=O)(=O)c3ccc(C)cc3C)cc12` was inactive: -17.5%; that for `COc1ccc(Cn2c(=O)c3cccnc3n(Cc3cccc(OC)c3)c2=O)cc1` was inactive: -10.6%; that for `O=C(NC1CC(=O)N(c2cccc(F)c2)C1)C1CC1` (centres undefined) was inactive: 5.29%.
In the case of `Cc1ccc(NC(=O)c2oc3ccccc3c2NC(=O)c2ccccc2C)cc1` it was inactive: -16.9%; in that of `COCCNC(=O)c1c(C)oc2nc(C)nc(N3CCOCC3)c12`, inactive: -7.66%; in that of `O=C(NCCCN1CCN(c2ccc(F)cc2)CC1)Nc1ccc(Cl)cc1`, active: 82.6%.
The value for `CCOC(=O)c1cccc(NC(=O)c2ccc3c(Cl)c4c(nc3c2)CCC4)c1` was inactive: -9.32%; that for `CCOC(=O)c1c(NC(=O)c2ccccc2Cl)sc2c1CCCC2` was inactive: -0.924%; that for `COc1ccc(C2c3c(-c4c(C)cc(C)cc4O)n[nH]c3C(=O)N2Cc2ccco2)cc1` (centres undefined) was inactive: 38.2%.
As for `COc1ccc2c(c1)c(CC(=O)O)c(C)n2C(=O)c1ccc(Cl)cc1`, the activation was inactive: -9.88% and inactive: -18.2%.
In the case of `COc1cccc(-c2nc(CS(=O)(=O)CC(=O)NCc3ccc(C)cc3)c(C)o2)c1` it was inactive: -16.7%.
For the compound `CCOc1cc(-c2nc3c(c(CC)nn3-c3ccccc3)c3cc(OC)c(OC)cc23)ccc1O`, the activation is inactive: -0.834%.
Take `Cc1ccc(-c2nnc(SCc3ccccc3C#N)o2)cc1`: the activation was inactive: -17.4%.
On to `Cc1ccc(C)c(NC(=O)Cn2c(=O)n(Cc3ccco3)c(=O)c3oc4ccccc4c32)c1`, for which the activation is inactive: -21.9%.
For `Cc1ccc2c(c1)NC(c1cccnc1)=NC(c1ccc(F)cc1)=N2`, the activation is inactive: -0.168%.
